# In all, about 110,000 compounds went through this assay and about 40 (0.04%) were called active. Inconclusive results, whose numbers are uncertain, are shown with a selection of clear calls. Calls follow the shape of the dose curve; as a rule, active = well fitted curve in the direction sought with a large enough effect in the signal ratio (not every such curve was filed as active); inconclusive = small, poorly fitted or top-dose-only effect, or a change in a side signal; inactive = flat fitted curve, though single readings scatter; the % refers to the signal ratio. Potencies beside an inconclusive call are fits to weak or partial responses and may not hold up.
# Experiment: IkB Signaling;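 as to IkBa stabilization activation: 0% = basal untreated cells and 100% = reference inhibitor full response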
# Conditions: ABC-DLBCL IkBa-CBG/CBR dual luciferase ratio (green luciferase fused to IkBa over red control in OCI-Ly3 lymphoma cells), 4 h; IkBa stabilization activation: at 57.1 µM (top of the series), scaled: untreated 0%, proteasome inhibitor 100% unless noted
# How it was run: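 In this assay, an IκBα–CBG68 fusion accumulates when IKK-driven degradation is blocked; native CBR normalizes for cell number. OCI-Ly3 cells were treated 4 h with compound and doxycycline, then green and red light read after Chroma-Glo addition.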
# Potency is read from the fitted curve at half-maximal effect.
Compound,IkBa stabilization activation,Potency
COC(=O)c1cc(OC)c(OC)cc1NC(=O)c1ccco1,inactive,
CSc1cccc(-n2nnc(-c3nsc(NC(=O)c4cccs4)n3)c2C)c1,inactive,
O=C(Nc1cnn(Cc2ccc(Cl)cc2Cl)c1)c1noc2c1CCCC2,inconclusive: 1.07% [signal inhibitor],
CCn1c(SCC(=O)Nc2ccc3c(c2)c2ccccc2n3CC)nnc1-c1cnccn1,inconclusive: 0.896% [signal inhibitor],
COc1ccc(Br)cc1CNC(=O)Cn1nc(C)n2c(cc3cc(F)ccc32)c1=O,inactive,
Cc1ccc(NC(=O)CN2C(=O)C(c3ccccc3)=NC23CCCCC3)cc1C,inconclusive: 0.163% [signal inhibitor],
CCc1ccc2occ(CC(=O)N(Cc3ccccc3)C3CCS(=O)(=O)C3)c2c1 (stereo not given),inconclusive: 2.05% [signal inhibitor],
COCCn1c(COc2ccc(C)cc2)nc2ccccc21,inactive,
CCn1ncc(Br)c1C(=O)Nc1sc2c(c1C(N)=O)CCC2,inactive,
COc1ccc(-n2c(C)nc3c(cnn3-c3ccc(C)c(C)c3)c2=O)cc1Cl,inconclusive: 0.505% [signal inhibitor],
CCS(=O)(=O)N1CCCc2cc(C(=O)Nc3cc([N+](=O)[O-])ccc3C)ccc21,inactive,
Cc1ccc(C)c(C(=O)N(Cc2nc(-c3ccc(Cl)cc3)no2)C(C)C)c1,inconclusive: 0.932% [signal inhibitor],
Cc1c(Cc2ccccc2)c(=O)oc2c(CN(C)C)c(O)c(Cl)cc12,inactive,
COc1ccc(Nc2nc3c(S(=O)(=O)c4ccccc4)nnn3c3ccc(Cl)cc23)cc1,inactive,
COc1cc(/C=C(/C#N)c2nc(-c3cc4ccccc4oc3=O)cs2)ccc1O,inconclusive: 10.6% [signal activator],
CS(=O)(=O)N1CCC2(CC1)CN(C(c1ccccc1)c1ccccc1)C2,"inactive: 3.64% [at 11.4 µM, scaled: untreated 0%, proteasome inhibitor 100%]",
Cc1cccc(NC(=O)CSc2nc3c([nH]c4ccccc43)c(=O)n2-c2cc(C)cc(C)c2)c1,inactive,
CCOC(=O)Cc1csc(NC(=O)c2csc(C)c2)n1,inconclusive: 7.79% [signal inhibitor],
CC1CCCCN1C(=O)CSc1nc(-c2ccccc2)no1 (stereo not given),inconclusive: 3% [signal inhibitor],
COC(=O)c1ccc(CSc2nc(N)cc(N)n2)cc1,inactive,
OC(CN1CCN(c2cccc(C(F)(F)F)c2)CC1)c1c[nH]c2ccccc12 (stereo not given),inconclusive: -0.484% [signal inhibitor],
CCCCNc1nc(N(C)c2ccccc2)nc(-n2ccnc2)n1,inconclusive: 3.19% [signal inhibitor],
O=C(c1ccc(-c2ccccc2)cc1)N1CCN(c2ncccn2)CC1,inactive,

Compound,IkBa stabilization activation,Potency
CCOC(=O)C1CCN(CC(=O)Nc2c(C(=O)OC)[nH]c3ccc(Cl)cc23)CC1,inconclusive: -1.85% [signal inhibitor],
COc1ccccc1NC(=O)N1CCn2c(nc3ccccc32)C1,inconclusive: 15.2% [signal inhibitor],
CCOc1ccc(CCNC(=O)CSCc2nc(-c3cccc(C)c3)oc2C)cc1OCC,inconclusive: 2.41% [signal inhibitor],
CCOc1ccc2nc(NC(=O)c3nc(SC(C)C)ncc3Cl)sc2c1,inactive,
CCc1cccc2c(-c3ccccc3)nc(SCC(=O)Nc3ccc(OC)cc3)nc12,inactive,
O=C(Cn1c(=O)c2cccn2c2ccc(F)cc21)NCc1cccc(Cl)c1,inactive,
O=C(COC(=O)c1cc(-c2ccco2)nc2ccccc12)NCc1ccc2c(c1)OCO2,inconclusive: 4.56% [signal inhibitor],
O=C(Nc1ccc(N2CCN(C(=O)c3ccco3)CC2)c(Cl)c1)c1cccs1,inconclusive: -0.638% [signal inhibitor],
Cc1ccc(S(=O)(=O)Oc2ccc(N=Nc3ccc(-c4ccc(N=Nc5c(O)ccc6cc(S(=O)(=O)O)cc(S(=O)(=O)O)c56)c(C)c4)cc3C)cc2)cc1,inactive,
O=C(Nc1ccc(F)c(Cl)c1)C1CCCN(S(=O)(=O)c2cccc3nsnc23)C1 (stereo not given),inconclusive: 11.4% [signal inhibitor],
COc1ccc(CCN(Cc2nc3ccccc3c(=O)[nH]2)C(=O)c2ccco2)cc1,inconclusive: 1.59% [signal inhibitor],
O=c1c2c3nc4ccccc4nc3n(Cc3ccccc3)c2ncn1Cc1ccco1,,"inconclusive: 5.01 µM [signal inhibitor, full curve]"
Cc1ccc(Nc2ccc(N3CCN(C(=O)c4ccc([N+](=O)[O-])cc4Cl)CC3)nn2)cc1,inconclusive: 6.84% [signal inhibitor],
Cc1cc(C(=O)Nc2ccccc2C#N)n(-c2ccccc2)n1,inconclusive: 1.61% [signal activator],
CCc1ccccc1NC(=O)CCc1c(C)nc2cc(-c3ccccc3)nn2c1C,inconclusive: 6.35% [signal inhibitor],
Cc1nnc(N2CCN(C(=O)Nc3cc(F)ccc3F)CC2)c2nn(-c3ccc(Cl)cc3)c(C)c12,inactive,
CN(C)C(=O)c1ccc(-c2nccc(NCc3cccs3)n2)cc1,"inactive: -0.52% [at 11.4 µM, scaled: untreated 0%, proteasome inhibitor 100%]",
O=C(N/N=C\c1ccccc1O)c1ccccc1O,,"inconclusive: 31.6 µM [signal inhibitor, partial curve]"
Cc1ccc2nc3c(cc2c1)CN(Cc1ccco1)C(=NCC1CCCO1)S3 (stereo not given),inconclusive: 11.5% [signal inhibitor],
CC1CCCN(CCC(=O)c2ccc(Br)cc2)C1 (stereo not given),inconclusive: 17.5% [signal inhibitor],
COc1ccc2c3c([nH]c2c1)[C@H]1C[C@@H]2[C@@H](C[C@@H](O)[C@H](OC)[C@H]2C(=O)O)CN1CC3,"inactive: -0.0305% [at 11.4 µM, scaled: untreated 0%, proteasome inhibitor 100%]",
CC(=O)N1CCc2c(sc3c2c(=O)n(CCc2ccccc2)c(=O)n3Cc2ccc(F)cc2)C1,inconclusive: -0.358% [signal inhibitor],

# Source: PubChem BioAssay AID445 (National Center for Advancing Translational Sciences (NCATS), 2006)
